# Laboratory results as given in PubChem BioAssay AID1240 (Sanford-Burnham Center for Chemical Genomics, 2008).
# In all, about 50,000 compounds went through this assay and about 800 (1.6%) showed an effect of 50% or more. The list shows a part of the results.
# Target: Bcl-2-like protein 10 (Homo sapiens) (UniProt Q9HD36)
# Experiment: TR3 peptide-Bcl-B binding displacers, biochemical primary FP assay, phenotype converters (AID 1240);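 also: 0% = Bcl-B with tracer peptide and DMSO and 100% = tracer peptide lacking Bcl-B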
# Conditions: GST-Bcl-B / FITC-TR3 peptide fluorescence polarization; stronger effect = higher value; compound at 3.75 mg/L
# Chain of UniProt Q9HD36 (Q9HD36 whole entry, looked up): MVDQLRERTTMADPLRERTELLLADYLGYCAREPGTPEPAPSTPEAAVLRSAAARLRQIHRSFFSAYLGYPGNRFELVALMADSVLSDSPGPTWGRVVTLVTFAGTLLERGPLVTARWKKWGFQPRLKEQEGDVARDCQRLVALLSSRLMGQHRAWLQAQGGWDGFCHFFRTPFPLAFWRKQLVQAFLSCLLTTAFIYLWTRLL
row,Structure (SMILES),displacement
1,Cc1ccc(C(=O)N2N=C(c3ccc(Cl)cc3)CC2(O)C(F)(F)F)o1 (centres undefined),-0.5%
2,Cc1ccc(OCC(=O)N=Nc2c(O)[nH]c(=O)[nH]c2=O)cc1,10.1%
3,c1ccc(Oc2nc(-c3ccncc3)nc3ccccc23)cc1,1.4%
4,O=C1NC(=S)N/C1=C/c1ccccn1,13.8%
5,CCc1c(C)nn2cn[n+](Cc3ccc(Cl)cc3)c2c1[O-],1.2%
6,CCCOC(=O)c1ccc(NS(=O)(=O)Cc2ccccc2)cc1,2.8%
7,Cc1ccc(NC(=O)Cc2nnc(NC(=O)Nc3ccccc3)s2)cc1,10%
8,CC1=NN(C(=O)c2ccc(N/C(C)=C/C(=O)C(F)(F)F)cc2)C(O)(C(F)(F)F)C1 (centres undefined),-11.9%
9,COc1cc(OC)cc(C(=O)N2CCN(C(c3ccccc3)c3ccccc3)CC2)c1,5.7%
10,CCc1ccc(-n2c(C)cc(/C=C3/SC(=S)NC3=O)c2C)cc1,63%
11,CC(=O)N(C(C)=O)c1nc(-c2ccccc2)c(-c2ccccc2)n1/N=C/c1ccccc1,10.8%
12,O=C(c1nn2c(c1Br)NC(c1cccs1)CC2C(F)(F)F)N(Cc1ccccc1)Cc1ccccc1 (centres undefined),6.8%
13,COC(=O)c1c(NC(=O)C2C3CCC(C3)C2C(=O)O)sc2c1CCCCC2 (centres undefined),-1.2%
14,O=C(Nc1ccc(Cl)cc1)Nc1nnc(COc2ccccc2F)s1,1.9%
15,O=C(Nc1cccc(Br)c1)c1ccc([N+](=O)[O-])cc1,12.7%
16,Cc1cc(Cl)c(OCCN2CCCCC2)c(Cl)c1,5.3%
17,CC1=C(C(=O)OC(C)C)C(c2coc3ccc(C)cc3c2=O)C2=C(CC(C)(C)CC2=O)N1 (centres undefined),-8.4%
18,O=C1C2C3C=CC(C3)C2C(=O)N1c1cccc(Oc2cccc(Oc3cccc(N4C(=O)C5C6C=CC(C6)C5C4=O)c3)c2)c1 (centres undefined),17.3%
19,Cc1cccc(C(=O)Nc2cc(-c3nc4ncccc4o3)ccc2C)c1,-3.8%
20,COc1ccc(N2C(=O)c3ccccc3NC2c2ccc(OC)c(CSc3ccccn3)c2)cc1 (centres undefined),10.6%
21,COc1cc(/C=N/N2C(=O)C3C4C=CC(CC4)C3C2=O)cc(I)c1O (centres undefined),3.3%
22,COC(=O)c1c(N)sc(C(=O)Nc2ccc(C)cc2C)c1C,9%

row,Structure (SMILES),displacement
1,CCCOc1ccc(-c2n[nH]c(=S)n2-c2ccccc2)cc1,-0.9%
2,C=CCc1cccc2cc(C(=O)N3CCN(C/C=C/c4ccccc4)CC3)c(=O)oc12,-0.3%
3,CC1(C)CC(=O)C2=C(C1)OC(N)=C(C#N)C2C1CC=CCC1 (centres undefined),2.5%
4,CN(C)CCOC(=O)CN1C(=O)S/C(=C/c2ccc(Br)cc2)C1=O,6.9%
5,C=CCN1C(=O)/C(=C\c2ccc(OCc3ccc(F)cc3)c(OCC)c2)C(=O)NC1=S,-4.1%
6,O=C(O)c1ccccc1/C=C1/SC(=S)N(c2cccc(Cl)c2)C1=O,-0.2%
7,CC(=O)c1cccc(NC(=O)Nc2ccccc2C)c1,-3.8%
8,O=C(CC(=O)c1cc(Cl)ccc1O)c1ccc(F)cc1,-4.2%
9,O=C(N/N=C\c1cc(Br)cc(I)c1O)c1ccc([N+](=O)[O-])cc1,48.9%
10,CS(=O)(=O)N(CC(=O)Nc1cccc2ccccc12)c1cccc(Cl)c1,4%
11,Cc1ccc(N(CC(=O)NC(C)C)S(C)(=O)=O)cc1Cl,-9.6%
12,Brc1ccc(OCCN2CCCC2)cc1,-3.5%
13,Cc1cc([N+](=O)[O-])ccc1NC(=O)c1cc2ccccc2o1,-1.2%
14,COc1cccc(C2C(C(=O)OCCc3ccccc3)=C(C)NC3=C2C(=O)CC(C)(C)C3)c1 (centres undefined),3.8%
15,COC(=O)C1=C(C)NC(=O)NC1c1ccc(O)cc1 (centres undefined),9.8%
16,O=C(NCCOc1ccccc1Cl)C(c1ccccc1)c1ccccc1,9.9%
17,COc1cccc(C(=O)N2CCN(Cc3ccccc3Cl)CC2)c1,11%
18,CCOC(=O)C(Oc1cc2oc(=O)c3c(c2cc1Cl)CCCC3)c1ccccc1 (centres undefined),-0.6%
19,COc1ccc(/C=C2\SC(=S)N(NC(=O)c3ccccc3Cl)C2=O)cc1,-7.3%
20,COc1ccc(CCNC(=O)c2cccc([N+](=O)[O-])c2C)cc1,1.9%
21,CN1CCN(Cn2c(O)c(N=NC(=O)c3ccncc3)c3cc(Br)ccc32)CC1,-0.4%
22,COc1ccc(C(=O)NC2CCCCC2)cc1OC,1.9%

row,Structure (SMILES),displacement
1,CC(=O)c1c(C)n(-c2ccc(Cl)cc2)c2ccc(O)cc12,1.9%
2,O=C(Nc1nncs1)c1sc2ccccc2c1Cl,-0.6%
3,C=CCSc1nc2ccccc2n1CC(=C)Br,-3.1%
4,Cc1cc(C)cc(NC(=O)COc2ccc(C(C)C)cc2)c1,-4%
5,N#C/C(=C/c1ccc(I)o1)c1ccc(F)cc1,-13.6%
6,CC(=O)Nc1ccc(-c2cn3ccccc3n2)cc1,7.9%
7,CCCCOc1cccc(C(=O)NCCNc2ccc([N+](=O)[O-])cc2)c1,-0.2%
8,Cc1ccc(-c2cc3nc(C)c(Cc4ccccc4)c(=O)n3[nH]2)cc1,1.6%
9,Cc1c(Cl)cccc1N1C(=O)CC(Sc2ncn[nH]2)C1=O (centres undefined),13.9%
10,Oc1ccc(Nc2ccnc3cc(Cl)ccc23)cc1,-18.8%
11,O=S(=O)(Cc1ccccc1)N1CCN(c2ccc(F)cc2)CC1,9.1%
12,O=C(Cc1ccc(F)cc1F)Nc1cccc2ccccc12,9.4%
13,COC(=O)c1ccc(N2C(=O)CC(NCc3ccc(Cl)c(Cl)c3)C2=O)cc1 (centres undefined),0.4%
14,Cc1ccc2ncnc(NCCc3ccccc3)c2c1,6.4%
15,CCOC(=O)C1=C(C)N=c2s/c(=C\c3ccccn3)c(=O)n2C1c1ccc(OC)cc1 (centres undefined),-11.7%
16,COC(=O)C1=C(C)N(Cc2ccco2)C(=O)C1,2.2%
17,COc1ccc(N(CC(=O)Nc2ccc(C(C)C)cc2)S(C)(=O)=O)c(OC)c1,1.1%
18,Cc1ccc(S(=O)(=O)OCCOS(=O)(=O)c2ccc(C)cc2)cc1,-5.7%
19,O=C1NC(=O)N(c2ccccc2)C(=O)/C1=C/c1cc2c(cc1Cl)OCO2,-2%
20,c1ccc2oc(SCCCCSc3nc4ccccc4o3)nc2c1,-10.7%
21,COc1ccc(/C=C2\C(=O)ON=C2C)cc1,0.5%
22,Cc1cc(=O)[nH]c(SCC(=O)Nc2ccccc2F)n1,2.7%

row,Structure (SMILES),displacement
1,CC(=O)Oc1ccc(/C=c2\sc3nc4ccccc4n3c2=O)cc1,28%
2,FC(F)(F)c1cccc(NC(=S)NCCc2ccccc2)c1,7.2%
3,COc1ccc(C2NC(=O)CCC2[N+](=O)[O-])c(OC)c1OC (centres undefined),4.8%
4,NC(=O)c1cc(NC(=O)c2ccc([N+](=O)[O-])cc2)ccc1Cl,-3.1%
5,COc1cc2c(cc1NC(=O)/C=C/c1ccccc1)oc1ccccc12,0%
6,COc1ccc(/C=C(\C#N)C(=O)NCC2CCCO2)cc1 (centres undefined),-4.5%
7,COc1cc(/C=C2/SC(=S)N(c3cccc(Cl)c3)C2=O)cc(OC)c1O,5.1%
8,O=C1/C(=C\c2ccc(-c3ccccc3Cl)o2)SC(=S)N1Cc1ccccc1,10%
9,CCOC(=O)C(=CNc1cc(Cl)ccc1Cl)C(=O)OCC,-8.5%
10,O=C(Cn1c(NCCCO)nc2ccccc21)c1ccc([N+](=O)[O-])cc1,11.1%
11,CCOC(=O)c1c(NC(=O)c2ccc(F)cc2)sc(C)c1CC,46.7%
12,Cc1cccc(OCC(=O)Nc2cc(C(F)(F)F)ccc2Cl)c1C,-5%
13,O=C(NCc1ccccc1)C(=O)Nc1cccc(Cl)c1Cl,-4.3%
14,Cc1c(CCNC(=O)c2ccccc2)c2ccccc2n1Cc1ccccc1,-7.2%
15,CCCCC(CC)CNC(=O)C(=O)NCC1CCCO1 (centres undefined),-3.6%
16,COc1ccc(S(=O)(=O)N2CCN(C(=O)Cc3ccccc3)CC2)cc1,2.3%
17,O=C(Nc1ccc(-c2ccc(NC(=O)c3ccccc3Cl)cc2)cc1)c1ccccc1Cl,16.9%
18,COc1ccc2c(c1)OCC/C2=N/OC(=O)c1ccc(OC)c([N+](=O)[O-])c1,-9%
19,O=C(Nc1ccccc1C(F)(F)F)C(F)(F)F,-1.5%
20,Cc1ccc(/C=N\NC(=O)C(O)(c2ccccc2)c2ccccc2)o1,-1.1%
21,NC(=O)Nc1ccc(C23CC4CC(CC(C4)C2)C3)cc1,0.5%
22,Cc1occc1C(=O)N/N=C/c1ccc(-c2cccc([N+](=O)[O-])c2)o1,-7.7%

row,Structure (SMILES),displacement
1,O=C(COc1ccccc1Cl)Nc1cccc(NC(=O)c2cccc(Cl)c2)c1,13.8%
2,O=S(=O)(c1ccc(NC(=S)Nc2ccccc2)cc1)N1CCc2ccccc21,9.1%
3,COc1ccc(OC)c(/C=C/C(=O)c2ccc(F)cc2)c1,-37.5%
4,Cc1ccc(Cl)cc1N(Cc1ccc(C(=O)O)cc1)S(=O)(=O)c1ccccc1,-4.9%
5,COCCNC(=O)c1cnn2c(-c3ccccc3)cc(-c3ccccc3)nc12,15.9%
6,O=C1OC(c2ccc(Br)cc2)=C/C1=C/c1ccc2c(c1)OCO2,10.7%
7,Cc1cc2c(cc1C)N(C(=O)CN1C(=O)c3ccccc3C1=O)C(C)(C)c1ssc(=S)c1-2,5.8%
8,CN(C)c1ccc(/C=C2\C(=O)Oc3ccccc3C2=O)cc1,7.6%
9,CCOc1ccc(N2C(=O)CC(NCC(=O)OC)C2=O)cc1 (centres undefined),-23.7%
10,COc1ccc(-c2nnc(Nc3ccc4c(c3)nc(C)n4C)c3ccccc23)cc1,3%
11,Oc1c(Cl)cc(Cl)cc1/C=N/Nc1nc(-c2ccc(Br)cc2)cs1,-6.7%
12,CC(C)/C=C1\CCCC\C1=N/NC(N)=O,-7.4%
13,Cc1c(NC(=O)c2ccc(CSc3ccc(Cl)cc3)cc2)c(=O)n(-c2ccccc2)n1C,18.8%
14,Cc1ccc(Cl)c(OCC(O)Cn2c(C)nc3ccccc32)c1 (centres undefined),-11.5%
15,COc1cc(C2/C(=C(\O)c3ccc(Cl)cc3)C(=O)C(=O)N2c2cccnc2)ccc1O (centres undefined),12.6%
16,COCCCNC(=O)COc1ccccc1,12.4%
17,Cc1ccc(NC(=O)c2cc([N+](=O)[O-])ccc2Cl)cc1Cl,-1.1%
18,O=C1/C(=C/c2cn(-c3ccccc3)nc2-c2cccs2)SC(=S)N1C1CCS(=O)(=O)C1 (centres undefined),100%
19,O=[N+]([O-])c1cccc(S(=O)(=O)Nc2ccccc2CO)c1,4.1%
20,C=CCNC(=O)CN(c1ccc(C)cc1)S(=O)(=O)c1ccc(OCC)cc1,8.8%
21,CC(=O)C1=C(C)N=c2s/c(=C/c3ccc(N(C)C)cc3)c(=O)n2C1c1ccccc1 (centres undefined),3%
